In all, about 52,000 compounds went through this assay and about 4,300 (8.3%) were called active. Rule as the data show it: active = survival mostly below about 52% (no sharp cut-off); inactive = mostly above about 56%. Some of the results follow.
Tested on: DeltatarO mutant
Test: S. aureus survival, RN4220 and DeltatarO strains – OD600, teichoic acid synthesis inhibitors, primary screen (AID 463173)
Conditions: S. aureus RN4220 wild type/DeltatarO growth, OD600, 18 h, hits give low values, screened at 18.75 µg/mL (by protocol)

Row | SMILES | survival
1 | Cc1ccc(OCC(=O)N(Cc2ccc(Cl)cc2)CC2CCCO2)cc1C (stereo not drawn) | inactive: 73%
2 | O=C(Nc1ccccc1C(F)(F)F)Nc1c[nH]c(=O)[nH]c1=O | inactive: 83%
3 | COc1ccc(Nc2c(-c3ccco3)nc3cccc(C)n23)cc1 | inactive: 91%
4 | Cc1ccc2c(C)c(C(=O)N3CCC(c4nc5ccccc5s4)CC3)oc2c1C | inactive: 80%
5 | Cc1cc(C)c2oc(-c3cc(NC(=O)Cc4ccccc4)ccc3Cl)nc2c1 | active: 31%
6 | COc1ccc(NC(=O)C2=C(C)Nc3c(C(=O)Nc4ccc(C)cc4)cnn3C2c2cc(OC)ccc2OC)cc1 (stereo not drawn) | inactive: 87%
7 | COc1cccc(NC(=O)Cn2c(=O)n(Cc3ccccc3)c(=O)c3c2c2cc(C)ccc2n3C)c1 | inactive: 89%
8 | CN(C)c1ccc(C2CC(c3c(O)n(C4CCCCC4)c(=O)[nH]c3=O)=Nc3ccccc3S2)cc1 (stereo not drawn) | inactive: 52%
9 | CCCN1CCc2nc(SCC(=O)Nc3ccc(C)c(Cl)c3)[nH]c(=O)c2C1 | inactive: 97%
10 | N#Cc1c(N)n[nH]c1-c1cc2c([nH]1)CCCC2 | inactive: 96%
11 | Cc1cc(N2CCN(c3cccc(C(F)(F)F)c3)CC2)n2nc(-c3ccccc3C)nc2n1 | active: 2%
12 | CCCOc1ccc(C2C(=O)N(C3CCCCCC3)CC(=O)N2Cc2ccc(OC)cc2)cc1OC (stereo not drawn) | inactive: 72%
13 | CCN(CC)S(=O)(=O)c1ccc2c(c1)N(CC(=O)NCc1ccc(F)cc1)C(=O)CO2 | inactive: 75%
14 | CCC(C)NC(=O)CSc1nc2c(sc3ccccc32)c(=O)n1CCc1ccccc1 (stereo not drawn) | inactive: 94%
15 | O=S(=O)(c1cccc(C(F)(F)F)c1)N1CCC(Oc2ccc(-n3cnnn3)cc2)CC1 | inactive: 73%
16 | Cc1ccc2oc(=O)c3cnn(CC(=O)N4CCN(c5cccc(C(F)(F)F)c5)CC4)c3c2c1 | inactive: 87%
17 | CC(C)=CCCC1=CCC2C(=O)NNC(=O)C2C1 (stereo not drawn) | inactive: 87%
18 | O=c1[nH]c2ccc(NCc3ccc(-c4ccccc4F)o3)cc2[nH]1 | inactive: 81%
19 | Cc1ccc(C(C)C)c(OCC(=O)Nc2cccc(-c3nc4ncccc4o3)c2)c1 | active: 2%
20 | CCOc1ccc(NC(=O)N(Cc2ccc(CC)cc2)Cc2cn[nH]c2-c2ccc(OC)cc2)cc1 | inactive: 58%
21 | COc1cccc(Oc2nc3c(c(=O)n(Cc4ccccc4Cl)c(=O)n3C)n2C)c1 | inactive: 73%
22 | CCOc1ccc(-c2cc3c(=O)n(Cc4nc(-c5ccc(OC)cc5OC)oc4C)ccn3n2)cc1Cl | inactive: 184%

Row | SMILES | survival
23 | c1ccc(CSc2nnc(C3CCNCC3)o2)cc1 | inactive: 91%
24 | COC(=O)c1ccc(NC(=O)CCn2cccn2)cc1 | inactive: 76%
25 | CC(=O)Nc1nc2ccccc2n1Cc1ccc(C)cc1 | inactive: 87%
26 | Cc1cc2c(cc(C(=O)OC(C(=O)NCC3CCCO3)C(C)C)n2C)o1 (stereo not drawn) | inactive: 84%
27 | C1=CCC(CN2CCN(Cc3ccccc3)CC2)CC1 (stereo not drawn) | inactive: 87%
28 | CN(CC(=O)NCc1ccccc1Cl)S(=O)(=O)c1ccc2c(c1)c(=O)n(C)c(=O)n2C | inactive: 130%
29 | Cc1sc2ncn(CC(=O)N3CCN(c4ccccc4F)CC3)c(=O)c2c1S(=O)(=O)N1CCN(c2ncccn2)CC1 | inactive: 66%
30 | Cc1ccc(Cl)cc1N1CCN(C(=O)Cc2c(C(=O)O)c(C)cn2C)CC1 | inactive: 81%
31 | O=c1c(-c2cc(-c3ccc(Cl)cc3)nc3c2COc2ccccc2-3)coc2ccccc12 | inactive: 84%
32 | CCC(=O)N1CCc2cc(Br)cc(S(=O)(=O)CCC(=O)NCCc3ccc(C)cc3)c21 | inactive: 124%
33 | CC(C)CC(NC(N)=O)C(=O)O (stereo not drawn) | inactive: 87%
34 | COc1ccccc1NC(=O)c1nnn(-c2ccc(F)cc2)c1C | inactive: 78%
35 | Cc1cc(F)ccc1NC(=O)C(C(C)C)N1Cc2ccccc2C1=O (stereo not drawn) | inactive: 109%
36 | CN(C)CCCNc1ncnc2ccc(Br)cc12 | inactive: 64%
37 | COc1ccc(CNC(=O)c2ccc3c(c2)N(Cc2ccccc2)C(=O)c2ccccc2S3=O)cc1 (stereo not drawn) | inactive: 87%
38 | CCc1ccccc1OCCSc1nc(-c2cccs2)nc2cc(=O)[nH]n12 | inactive: 94%
39 | CC(=O)Nc1ccc(S(=O)(=O)NC2=NCN(C(C)C)CN2)cc1 | inactive: 125%
40 | COc1ccc(C(=O)N2CC(=O)Nc3ccc(C)cc3C2c2ccc(F)cc2)c(OC)c1 (stereo not drawn) | inactive: 168%
41 | COc1ccc(CNc2nc(-c3ccco3)nn2S(=O)(=O)c2ccc3ccccc3c2)cc1OC | active: 58%
42 | Cc1ccc(C)c(NC(=O)Cn2c(=O)n(Cc3nc(C)no3)c(=O)c3cc4c(cc32)OCO4)c1 | inactive: 83%
43 | CCc1ccc(NC(=O)Cn2c(=O)n(Cc3ccc4c(c3)OCO4)c(=O)c3oc4ccccc4c32)cc1 | inactive: 83%
44 | CCc1c(C)nc2cc(-c3cc(OC)cc(OC)c3)nn2c1NCCO | inactive: 95%

Row | SMILES | survival
45 | Cc1ccc(S(=O)(=O)n2nc(-c3ccccc3)nc2NCc2ccccc2Cl)cc1 | inactive: 85%
46 | Cc1cccc(N2C(=O)C(CC(=O)Nc3ccc(F)cc3)N(C3CCCC3)C2=O)c1 (stereo not drawn) | inactive: 130%
47 | Cc1ccc(-c2cc(C(=O)N3CCN(S(=O)(=O)c4ccc(Br)s4)CC3)[nH]n2)cc1C | inactive: 83%
48 | Cc1oc2ccc(O)c(CN3CCN(C)CC3)c2c1C(=O)Nc1ccc(C(C)C)cc1 | inactive: 95%
49 | Cc1cc2c(cc1C)CN(c1cccc(C(=O)N/N=C/c3ccco3)c1)C2 | inactive: 85%
50 | COc1ccc(CNC(=O)C(OC(C)=O)c2ccccn2)cc1 (stereo not drawn) | inactive: 87%
51 | Cc1cc(C)c(C#N)c(NC2CCCCC2)n1 | inactive: 87%
52 | CC(C)c1ccc(NC(=O)CSC2=Nc3ccccc3C3=NC(CCC(=O)NCc4ccc(F)cc4)C(=O)N23)cc1 (stereo not drawn) | inactive: 92%
53 | COc1ccc(-c2nc(C)c(CCNC(=O)c3ccco3)s2)cc1 | inactive: 71%
54 | CCC(C)Sc1nc2c([nH]c3ccccc32)c(=O)n1C (stereo not drawn) | inactive: 85%
55 | CCN1CCN(C(=O)c2ccc3c(c2)N(Cc2c(F)cccc2Cl)C(=O)c2ccccc2S3)CC1 | inactive: 86%
56 | Cc1ccccc1COC(=O)c1ccc(-c2nnn(Cc3ccccc3F)n2)cc1 | inactive: 54%
57 | O=c1c(-c2cc(-c3ccc(F)cc3)nc3c2COc2ccc(Cl)cc2-3)coc2ccc(F)cc12 | inactive: 88%
58 | Cc1ccc(-c2noc(CN(C3CCCCC3)S(=O)(=O)c3ccc(F)cc3)n2)cc1 | inactive: 78%
59 | CC(=O)Nc1ccc(NC(=O)CSc2cn(CC(=O)N(C(C)C)C(C)C)c3ccccc23)cc1 | inactive: 72%
60 | Cc1cc2oc(C(=O)NCCc3ccc(S(N)(=O)=O)cc3)cc(=O)c2cc1C | inactive: 55%
61 | CCC(=O)N1CCc2cc(S(=O)(=O)NC(Cc3ccccc3)C(=O)NCc3ccc(C)cc3)ccc21 (stereo not drawn) | inactive: 78%
62 | COc1ccc(OCCn2cc(C(=O)c3ccco3)c3ccccc32)cc1 | inactive: 56%
63 | CCOc1ccccc1CN1C(=O)c2ccccc2C1C(=O)NC1CCCCCC1 (stereo not drawn) | inactive: 66%
64 | COC(=O)c1cc2occc2n1Cc1nc(-c2ccccc2C)oc1C | inactive: 87%
65 | CCc1nnc(NC(=O)CSc2nc3c([nH]c4ccccc43)c(=O)n2-c2ccc(C)cc2)s1 | inactive: 122%
66 | CCc1nc2ccc(C(=O)N3CCN(c4cccc(OC)c4)CC3)cc2nc1CC | inactive: 83%

Row | SMILES | survival
67 | Cc1ccc(C)c(-c2ccc(=O)n(Cc3ccc(F)cc3Cl)n2)c1 | active: 32%
68 | O=C(COc1ccccc1)Nc1sc2c(c1C(=O)Nc1ccccc1)CCCCC2 | inactive: 85%
69 | CCOC(=O)C1CCCN(C(=O)Cn2ncc3c4ccccc4n(Cc4ccc(F)cc4)c3c2=O)C1 (stereo not drawn) | inactive: 107%
70 | O=C(CCCCCn1c(=O)[nH]c2ccccc2c1=O)N1CCN(c2ccc(Cl)cc2)CC1 | inactive: 87%
71 | COC(=O)c1ccc(CNC(=O)c2nc(Cn3nc(C)c(Br)c3C)no2)cc1 | inactive: 59%
72 | CC(C)C1Oc2ccccc2N(CC(=O)N(Cc2ccccn2)C2CC2)C1=O (stereo not drawn) | inactive: 93%
73 | O=C1c2ccccc2N(Cc2ccc(Cl)cc2)C2=NCCN12 | inactive: 80%
74 | O=C(CSc1nc2c([nH]c3ccccc32)c(=O)n1-c1cccc(Cl)c1)NCc1ccccc1 | inactive: 93%
75 | CC(C)N(C(=O)CNCc1cccs1)C(C)C | inactive: 92%
76 | CCc1ccc(NC(=O)C2CCCN(S(=O)(=O)c3cccc4cccnc34)C2)cc1 (stereo not drawn) | active: 58%
77 | O=S(=O)(NCC(c1ccco1)N1CCOCC1)c1ccc(Cl)cc1 (stereo not drawn) | inactive: 86%
78 | CCOC(=O)c1ccc(NC(=O)CCn2c(=O)oc3ccccc32)cc1 | inactive: 112%
79 | CCOC(=O)CNC(=O)CC(c1cc(OC)c(OC)c(OC)c1)N1Cc2ccccc2C1=O (stereo not drawn) | active: 47%
80 | CCN(CC)c1ccc(C(=O)Nc2ccc3nc(N(CC)CC)cc(C)c3c2)cc1 | inactive: 52%
81 | Cc1ccc2[nH]c(CSc3nnc(NC(=O)COc4ccccc4Cl)s3)cc(=O)c2c1 | inactive: 75%
82 | CN(Cc1ccccc1)C(=O)Cn1c(=O)c2cccn2c2ccc(F)cc21 | inactive: 73%
83 | O=c1[nH]c(C2CCCN(S(=O)(=O)c3ccccc3Cl)C2)nc2c1nnn2Cc1ccc(OC(F)(F)F)cc1 (stereo not drawn) | inactive: 63%
84 | COc1ccc(CNC(=O)CCCc2nnc3n(CCC(C)C)c(=O)c4sccc4n23)cc1 | inactive: 93%
85 | Cn1cc(C(=O)NCCc2ccc(Cl)cc2)c(=O)c2cc(S(=O)(=O)N3CCOCC3)ccc21 | inactive: 85%
86 | Cc1ccc(CCNC(=O)C2CC(=O)N(CCc3ccccc3)C2)cc1 (stereo not drawn) | inactive: 85%
87 | COc1ccc(S(=O)(=O)N(CC(=O)O)c2cc(Cl)ccc2OC)cc1OC | inactive: 59%
88 | COc1ccc(CCNC(=O)c2ccc3c(c2)c(C)c(C)n3Cc2ccccc2)c(OC)c1OC | inactive: 81%

Source: PubChem BioAssay AID463173 (ICCB-Longwood Screening Facility, Harvard Medical School, 2010)
